According to article PMC12846068, “Insights into Transport Function of the Murine Organic Anion-Transporting Polypeptide OATP1B2 by Comparison with Its Rat and Human Orthologues” (Toxics, 2025):

Experiments:
hOATP1B3 [1] = target: T1, hOATP1B3 (Homo sapiens, UniProt Q9NPD5); test: hOATP1B3-mediated uptake of [3H]-E1S and [3H]-TCA in transfected HEK293 cells
T1 sequence (Q9NPD5 1-702): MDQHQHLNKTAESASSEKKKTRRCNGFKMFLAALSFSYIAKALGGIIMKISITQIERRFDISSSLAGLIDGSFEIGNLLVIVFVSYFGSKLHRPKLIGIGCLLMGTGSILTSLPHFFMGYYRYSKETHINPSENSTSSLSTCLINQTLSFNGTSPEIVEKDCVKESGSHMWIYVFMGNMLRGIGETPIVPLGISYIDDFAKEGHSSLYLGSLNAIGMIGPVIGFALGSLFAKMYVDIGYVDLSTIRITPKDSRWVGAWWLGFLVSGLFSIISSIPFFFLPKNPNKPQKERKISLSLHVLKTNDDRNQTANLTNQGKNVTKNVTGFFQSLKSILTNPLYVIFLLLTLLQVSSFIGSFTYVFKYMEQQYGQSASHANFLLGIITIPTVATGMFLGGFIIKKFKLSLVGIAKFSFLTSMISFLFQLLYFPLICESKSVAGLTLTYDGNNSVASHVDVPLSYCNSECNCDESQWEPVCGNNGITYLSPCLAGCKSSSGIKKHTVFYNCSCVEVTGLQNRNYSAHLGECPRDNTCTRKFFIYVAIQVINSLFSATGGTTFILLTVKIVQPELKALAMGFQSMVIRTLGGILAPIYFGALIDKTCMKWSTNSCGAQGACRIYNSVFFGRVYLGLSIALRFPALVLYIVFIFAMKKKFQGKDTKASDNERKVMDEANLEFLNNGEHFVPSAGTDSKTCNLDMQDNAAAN

mOATP1B2 = target: T2, mOATP1B2 (Mus musculus, UniProt Q9JJL3); test: mOATP1B2-mediated uptake of [3H]-E1S and [3H]-TCA in overexpressing HEK293 cells; format: cell-based
T2 construct: The full-length mOATP1B2 and rOATP1B2 consist of 689 and 678 amino acids
T2 sequence (Q9JJL3 1-689): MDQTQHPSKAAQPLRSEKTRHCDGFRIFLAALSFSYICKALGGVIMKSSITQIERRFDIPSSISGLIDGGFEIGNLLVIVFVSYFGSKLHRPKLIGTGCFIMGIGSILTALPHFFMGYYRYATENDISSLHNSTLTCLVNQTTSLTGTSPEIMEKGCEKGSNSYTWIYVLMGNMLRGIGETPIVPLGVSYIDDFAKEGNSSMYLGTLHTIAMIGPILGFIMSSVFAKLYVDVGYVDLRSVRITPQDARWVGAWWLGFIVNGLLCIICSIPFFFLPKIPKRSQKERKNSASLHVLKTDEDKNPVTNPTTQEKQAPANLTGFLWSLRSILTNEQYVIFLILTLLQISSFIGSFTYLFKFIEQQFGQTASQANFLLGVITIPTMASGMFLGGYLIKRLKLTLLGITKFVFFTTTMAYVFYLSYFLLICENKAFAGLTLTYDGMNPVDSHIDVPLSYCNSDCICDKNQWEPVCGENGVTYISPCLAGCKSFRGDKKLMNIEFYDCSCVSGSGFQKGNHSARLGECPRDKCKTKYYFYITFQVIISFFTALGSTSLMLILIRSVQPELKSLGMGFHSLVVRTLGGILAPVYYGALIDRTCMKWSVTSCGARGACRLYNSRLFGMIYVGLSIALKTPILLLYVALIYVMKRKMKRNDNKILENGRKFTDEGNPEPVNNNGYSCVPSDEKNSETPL

rOATP1B2 = target: T3, rOATP1B2 (Rattus norvegicus, UniProt Q9QZX8); test: rOATP1B2-mediated uptake of [3H]-E1S and [3H]-TCA in overexpressing HEK293 cells; format: cell-based
T3 construct: The full-length mOATP1B2 and rOATP1B2 consist of 689 and 678 amino acids
T3 sequence (Q9QZX8 1-687): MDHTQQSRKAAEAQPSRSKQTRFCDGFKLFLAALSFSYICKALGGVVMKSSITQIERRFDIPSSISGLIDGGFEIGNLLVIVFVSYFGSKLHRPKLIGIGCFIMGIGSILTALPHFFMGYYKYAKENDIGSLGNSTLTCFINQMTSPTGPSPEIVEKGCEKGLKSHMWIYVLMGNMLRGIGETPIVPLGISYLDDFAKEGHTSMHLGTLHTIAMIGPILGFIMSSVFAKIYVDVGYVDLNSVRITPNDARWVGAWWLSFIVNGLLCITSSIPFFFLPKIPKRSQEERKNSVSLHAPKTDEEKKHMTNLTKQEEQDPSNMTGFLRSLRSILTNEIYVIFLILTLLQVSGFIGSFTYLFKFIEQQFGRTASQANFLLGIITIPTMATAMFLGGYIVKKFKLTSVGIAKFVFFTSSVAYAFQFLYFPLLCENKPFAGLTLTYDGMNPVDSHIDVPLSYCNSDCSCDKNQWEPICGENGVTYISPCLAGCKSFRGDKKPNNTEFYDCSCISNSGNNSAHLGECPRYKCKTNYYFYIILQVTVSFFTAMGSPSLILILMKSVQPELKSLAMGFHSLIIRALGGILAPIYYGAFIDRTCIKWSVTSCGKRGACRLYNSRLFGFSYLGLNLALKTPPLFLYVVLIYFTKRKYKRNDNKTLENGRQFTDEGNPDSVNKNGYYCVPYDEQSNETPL

hOATP1B1 [2] = target: T4, hOATP1B1 (Homo sapiens, UniProt Q9Y6L6); settings: hOATP1B1, 0.01 µM substrate
T4 sequence (Q9Y6L6 1-691): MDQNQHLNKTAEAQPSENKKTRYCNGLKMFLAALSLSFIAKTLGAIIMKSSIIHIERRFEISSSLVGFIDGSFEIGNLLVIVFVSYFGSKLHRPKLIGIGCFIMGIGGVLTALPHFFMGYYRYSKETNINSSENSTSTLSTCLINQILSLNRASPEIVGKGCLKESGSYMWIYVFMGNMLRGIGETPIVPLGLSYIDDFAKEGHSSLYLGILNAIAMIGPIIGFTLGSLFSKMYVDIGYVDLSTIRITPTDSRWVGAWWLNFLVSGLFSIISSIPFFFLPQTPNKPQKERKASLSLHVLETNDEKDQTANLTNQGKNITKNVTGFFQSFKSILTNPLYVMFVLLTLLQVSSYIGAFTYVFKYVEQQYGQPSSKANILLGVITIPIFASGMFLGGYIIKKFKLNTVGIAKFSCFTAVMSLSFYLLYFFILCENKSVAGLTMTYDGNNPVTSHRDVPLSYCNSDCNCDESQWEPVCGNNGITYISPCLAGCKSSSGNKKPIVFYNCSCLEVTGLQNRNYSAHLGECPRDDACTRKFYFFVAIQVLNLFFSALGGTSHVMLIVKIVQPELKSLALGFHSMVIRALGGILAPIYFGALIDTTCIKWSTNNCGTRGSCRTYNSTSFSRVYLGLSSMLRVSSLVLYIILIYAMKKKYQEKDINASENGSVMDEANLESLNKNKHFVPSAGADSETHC

hOATP1B1 [3] = target: T4, hOATP1B1; set-up: expressed in transfected cells; host or cells: HEK-293, stably transfected; settings: previous study; cited from earlier work
hOATP1B3 [4] = target: T1, hOATP1B3; set-up: expressed in transfected cells; host or cells: HEK-293, stably transfected; settings: CHO cells; ref Gui et al. (2008) [16]; read-out: Km, OATP1B3-mediated E1S; cited from earlier work

In the case of `C[C@]12CC[C@@H]3c4ccc(OS(=O)(=O)O)cc4CC[C@H]3[C@@H]1CCC2=O` [E1S, estrone-3-sulfate], the “uptake compared to vector-transfected control cells” value (hOATP1B3 [1]; hOATP1B3, 0.01 µM substrate) is reported as “no significant uptake”, the “uptake compared to vector-transfected control cells” value (hOATP1B3 [1]; hOATP1B3, 1 µM substrate, E1S 5 min, TCA 10 min) is reported as “no significant uptake” and the “uptake ratio transporter-HEK cells versus vector-HEK cells” value (mOATP1B2; mOATP1B2, 1 µM substrate, initial time 1 min) is reported as “more than 50 fold”. For the same compound, the Vmax (mOATP1B2; mOATP1B2-HEK293, net uptake, 1 min, 37 °C) was 8881 ± 390 pmol/mg protein/min, the Km (mOATP1B2; mOATP1B2-HEK293, net uptake, 1 min, 37 °C, increasing unlabeled substrate with 10 nM 3H-substrate) was 242 ± 23 µM and the “uptake ratio transporter-HEK cells versus vector-HEK cells” value (rOATP1B2; rOATP1B2, 1 µM substrate, initial time 1 min) was “around 10 fold”. For the same compound, the Vmax (rOATP1B2; rOATP1B2-HEK293, net uptake, 1 min, 37 °C) was 859 ± 36 pmol/mg protein/min, the Km (rOATP1B2; rOATP1B2-HEK293, net uptake, 1 min, 37 °C, increasing unlabeled substrate with 10 nM 3H-substrate) was 90 ± 11 µM and the “uptake compared to vector-transfected control cells” value (hOATP1B1 [2]) was 46 fold. The Km (hOATP1B1 [3]) was 0.25 ± 0.04 µM and the Km (hOATP1B3 [4]) was 58 ± 20 µM.
